{"source": "the supplement of paper PMC8728848", "test_in_all_cases": "glycan array binding signal (z-score within array); higher = stronger binding", "settings_in_all_cases": "glycan notation: IUPAC condensed, linker removed", "key": {"[1]": {"biological_target": "Gal3S(b1-4)Glc", "summary_of_the_method": "(§1)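 Glycan array data came from 3228 arrays in the Consortium for Functional Glycomics database, and only arrays with an available protein sequence were kept. Glycan names were put into IUPAC-condensed notation, and columns mapping to the same glycan were averaged. The binding signal is a within-array Z-score, averaged across arrays of one protein sequence run at different concentrations or buffers and across linkers. A negative Z-score can be read as non-binding.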"}, "[2]": {"biological_target": "Gal3S(b1-4)Glc6S", "summary_of_the_method": "as §1"}, "[3]": {"biological_target": "Gal3S(b1-4)GlcNAc", "summary_of_the_method": "as §1"}, "[4]": {"biological_target": "Gal3S(b1-4)[Fuc(a1-3)]Glc6S", "summary_of_the_method": "as §1"}, "[5]": {"biological_target": "Gal3S(b1-4)[Fuc(a1-3)]GlcNAc", "summary_of_the_method": "as §1"}, "[6]": {"biological_target": "Gal3S(b1-4)[Fuc(a1-3)]GlcNAc6S", "summary_of_the_method": "as §1"}, "[7]": {"biological_target": "Gal3S4S(b1-4)GlcNAc", "summary_of_the_method": "as §1"}, "[8]": {"biological_target": "Gal3S6S(b1-4)GlcNAc", "summary_of_the_method": "as §1"}, "[9]": {"biological_target": "Gal3S6S(b1-4)GlcNAc6S", "summary_of_the_method": "as §1"}, "[10]": {"biological_target": "Gal4S(b1-4)GlcNAc", "summary_of_the_method": "as §1"}, "[11]": {"biological_target": "Gal4S6S(b1-4)GlcNAc", "summary_of_the_method": "as §1"}, "[12]": {"biological_target": "Gal6P(b1-4)GlcNAc", "summary_of_the_method": "as §1"}, "[13]": {"biological_target": "Gal6S(b1-3)GlcNAc", "summary_of_the_method": "as §1"}, "[14]": {"biological_target": "Gal6S(b1-3)GlcNAc6S", "summary_of_the_method": "as §1"}, "[15]": {"biological_target": "Gal6S(b1-4)Glc", "summary_of_the_method": "as §1"}, "[16]": {"biological_target": "Gal6S(b1-4)Glc6S", "summary_of_the_method": "as §1"}, "[17]": {"biological_target": "Gal6S(b1-4)GlcNAc", "summary_of_the_method": "as §1"}, "[18]": {"biological_target": "Gal6S(b1-4)GlcNAc6S", "summary_of_the_method": "as §1"}, "[19]": {"biological_target": "GalNAc(a1-3)Gal", "summary_of_the_method": "as §1"}, "[20]": {"biological_target": "GalNAc(a1-3)GalNAc", "summary_of_the_method": "as §1"}, "[21]": {"biological_target": "GalNAc(a1-3)GalNAc(b1-3)Gal(a1-4)Gal(b1-4)Glc", "summary_of_the_method": "as §1"}, "[22]": {"biological_target": "GalNAc(a1-3)GalNAc(b1-3)Gal(a1-4)Gal(b1-4)GlcNAc", "summary_of_the_method": "as §1"}, "[23]": {"biological_target": "GalNAc(b1-3)Gal", "summary_of_the_method": "as §1"}, "[24]": {"biological_target": "GalNAc(b1-3)Gal(a1-4)Gal(b1-4)GlcNAc", "summary_of_the_method": "as §1"}, "[25]": {"biological_target": "GalNAc(b1-3)Gal(a1-4)Gal(b1-4)GlcNAc(b1-3)Gal(b1-4)Glc", "summary_of_the_method": "as §1"}, "[26]": {"biological_target": "GalNAc(b1-3)Gal(a1-6)Gal(b1-4)Glc", "summary_of_the_method": "as §1"}, "[27]": {"biological_target": "GalNAc(b1-3)GalNAc", "summary_of_the_method": "as §1"}, "[28]": {"biological_target": "GalNAc(b1-3)GlcNAc", "summary_of_the_method": "as §1"}, "[29]": {"biological_target": "GalNAc(b1-4)Gal(b1-4)Glc", "summary_of_the_method": "as §1"}, "[30]": {"biological_target": "GalNAc(b1-4)GlcNAc", "summary_of_the_method": "as §1"}, "[31]": {"biological_target": "GalNAc(b1-4)GlcNAc(b1-2)Man", "summary_of_the_method": "as §1"}, "[32]": {"biological_target": "GalNAc(b1-4)GlcNAc(b1-2)Man(a1-3)[GalNAc(b1-4)GlcNAc(b1-2)Man(a1-6)]Man(b1-4)GlcNAc(b1-4)GlcNAc", "summary_of_the_method": "as §1"}, "[33]": {"biological_target": "GalNAc(b1-4)GlcNAc(b1-3)GalNAc(b1-4)GlcNAc", "summary_of_the_method": "as §1"}, "[34]": {"biological_target": "GalNAc(b1-4)GlcNAc6S", "summary_of_the_method": "as §1"}, "[35]": {"biological_target": "GalNAc(b1-6)GalNAc", "summary_of_the_method": "as §1"}, "[36]": {"biological_target": "GalNAc3S(b1-4)GlcNAc", "summary_of_the_method": "as §1"}, "[37]": {"biological_target": "GalNAc3S(b1-4)GlcNAc3S", "summary_of_the_method": "as §1"}}, "note": "Some of the results follow.", "data": [{"binder": "Cohesin-hDECTIN-1 (Homo sapiens) (protein) LDITSHHHHHHDDLDAVRIKVDTVNAKPGDTVRIPVRFSGIPSKGIANCDFVYSYDPNVLEIIEIEPGDIIVDPNPDKSFDTAVYPDRKIIVFLFAEDSGTGAYAITKDGVFATIVAKVKEGAPNGLSVIKFVEVGGFANNDLVEQKTQFFDGGVNVGDTTEPATPTTPVTTPTTTDDLDAASSSPCPPNWIIYEKSCYLFSMSLNSWDGSKRQCWQLGSNLLKIDSSNELGFIVKQVSSQPDNSFWIGLSRPQTEVPWLWEDGSTFSSNLFQIRTTATQENPSPNCVWIHVSVIYDQLCSVPSYSICEKKFM", "values": [{"measurement": "glycan array binding signal (z-score)", "setting": "[1]", "value": 0.507}, {"measurement": "glycan array binding signal (z-score)", "setting": "[2]", "value": 0.292}, {"measurement": "glycan array binding signal (z-score)", "setting": "[3]", "value": -0.109}, {"measurement": "glycan array binding signal (z-score)", "setting": "[4]", "value": -0.293}, {"measurement": "glycan array binding signal (z-score)", "setting": "[5]", "value": -0.548}, {"measurement": "glycan array binding signal (z-score)", "setting": "[6]", "value": 1.08}, {"measurement": "glycan array binding signal (z-score)", "setting": "[7]", "value": -0.16}, {"measurement": "glycan array binding signal (z-score)", "setting": "[8]", "value": -0.079}, {"measurement": "glycan array binding signal (z-score)", "setting": "[9]", "value": 0.727}, {"measurement": "glycan array binding signal (z-score)", "setting": "[10]", "value": -0.432}, {"measurement": "glycan array binding signal (z-score)", "setting": "[11]", "value": 0.157}, {"measurement": "glycan array binding signal (z-score)", "setting": "[12]", "value": -0.218}, {"measurement": "glycan array binding signal (z-score)", "setting": "[13]", "value": -0.197}, {"measurement": "glycan array binding signal (z-score)", "setting": "[14]", "value": 1.2}, {"measurement": "glycan array binding signal (z-score)", "setting": "[15]", "value": 0.119}, {"measurement": "glycan array binding signal (z-score)", "setting": "[16]", "value": 0.622}, {"measurement": "glycan array binding signal (z-score)", "setting": "[17]", "value": 0.85}, {"measurement": "glycan array binding signal (z-score)", "setting": "[18]", "value": 2.84}, {"measurement": "glycan array binding signal (z-score)", "setting": "[19]", "value": 2.65}, {"measurement": "glycan array binding signal (z-score)", "setting": "[20]", "value": 0.527}, {"measurement": "glycan array binding signal (z-score)", "setting": "[21]", "value": 0.028}, {"measurement": "glycan array binding signal (z-score)", "setting": "[22]", "value": -0.032}, {"measurement": "glycan array binding signal (z-score)", "setting": "[23]", "value": 5.2}, {"measurement": "glycan array binding signal (z-score)", "setting": "[24]", "value": 2.46}, {"measurement": "glycan array binding signal (z-score)", "setting": "[25]", "value": 2.63}, {"measurement": "glycan array binding signal (z-score)", "setting": "[26]", "value": 4.68}, {"measurement": "glycan array binding signal (z-score)", "setting": "[27]", "value": 0.227}, {"measurement": "glycan array binding signal (z-score)", "setting": "[28]", "value": 3.33}, {"measurement": "glycan array binding signal (z-score)", "setting": "[29]", "value": -0.401}, {"measurement": "glycan array binding signal (z-score)", "setting": "[30]", "value": 1.82}, {"measurement": "glycan array binding signal (z-score)", "setting": "[31]", "value": 2.72}, {"measurement": "glycan array binding signal (z-score)", "setting": "[32]", "value": 0.004}, {"measurement": "glycan array binding signal (z-score)", "setting": "[33]", "value": 1.85}, {"measurement": "glycan array binding signal (z-score)", "setting": "[34]", "value": 1.69}, {"measurement": "glycan array binding signal (z-score)", "setting": "[35]", "value": -0.46}, {"measurement": "glycan array binding signal (z-score)", "setting": "[36]", "value": -0.453}, {"measurement": "glycan array binding signal (z-score)", "setting": "[37]", "value": -0.239}]}]}
